This is an account of results in paper PMC4336329 (PLoS ONE, 2015).

Molecules are shown by their SMILES. The whole screen tested about 310,000 compounds, of which about 2,200 (0.71%) showed an effect of 50% or more. The effect is printed as a negative number. Some of the results follow.

human ether-à-go-go-related gene (hERG) potassium channel, sequence (Q12809 whole entry, looked up): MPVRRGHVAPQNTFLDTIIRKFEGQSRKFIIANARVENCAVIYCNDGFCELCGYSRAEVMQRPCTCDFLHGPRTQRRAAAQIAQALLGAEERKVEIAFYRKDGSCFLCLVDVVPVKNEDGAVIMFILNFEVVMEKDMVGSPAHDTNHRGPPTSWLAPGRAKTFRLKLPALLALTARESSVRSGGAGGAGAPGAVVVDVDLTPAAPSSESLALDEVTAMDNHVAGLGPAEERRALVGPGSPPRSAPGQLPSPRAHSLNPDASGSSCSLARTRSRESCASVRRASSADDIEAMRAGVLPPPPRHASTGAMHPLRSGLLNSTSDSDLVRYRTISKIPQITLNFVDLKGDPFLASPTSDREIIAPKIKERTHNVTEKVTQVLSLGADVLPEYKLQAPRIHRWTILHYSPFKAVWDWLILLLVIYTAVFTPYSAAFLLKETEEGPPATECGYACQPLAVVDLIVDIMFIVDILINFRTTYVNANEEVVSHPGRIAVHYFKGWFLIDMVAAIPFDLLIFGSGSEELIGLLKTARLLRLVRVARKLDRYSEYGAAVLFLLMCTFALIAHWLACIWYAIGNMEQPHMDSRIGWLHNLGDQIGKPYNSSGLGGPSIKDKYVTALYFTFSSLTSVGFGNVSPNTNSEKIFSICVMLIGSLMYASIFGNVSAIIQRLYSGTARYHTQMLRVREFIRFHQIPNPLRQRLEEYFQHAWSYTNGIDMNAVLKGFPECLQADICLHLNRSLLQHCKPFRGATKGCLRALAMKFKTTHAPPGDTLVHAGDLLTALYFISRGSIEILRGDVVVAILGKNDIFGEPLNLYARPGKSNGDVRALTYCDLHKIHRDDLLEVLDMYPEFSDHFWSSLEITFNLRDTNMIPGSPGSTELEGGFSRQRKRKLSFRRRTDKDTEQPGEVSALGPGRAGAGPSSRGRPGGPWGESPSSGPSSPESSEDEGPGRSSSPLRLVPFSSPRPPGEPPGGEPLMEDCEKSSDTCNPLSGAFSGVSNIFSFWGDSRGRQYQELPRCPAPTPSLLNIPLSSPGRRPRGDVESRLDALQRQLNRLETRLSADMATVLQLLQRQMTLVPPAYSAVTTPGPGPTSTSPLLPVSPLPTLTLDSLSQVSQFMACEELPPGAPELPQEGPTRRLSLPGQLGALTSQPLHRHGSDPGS

This assay concerns the target human ether-à-go-go-related gene (hERG) potassium channel (human, UniProt Q12809). Kind of assay: primary screen, population patch clamp on CHO cells stably expressing hERG.
Regarding `CCN(CC)C(C(=O)Nc1ccc2c(c1)OCO2)c1ccccc1` (stereo not drawn), the “hERG current change (%, negative = inhibition) at 1uM” value is listed as -2.71%.
With `COc1cccc(CNC(=O)CC(NC(=O)c2ccccc2)c2ccccc2)c1` (stereo not drawn) the figure was -3.32%; with `Cc1nc2ccc(NC(=S)N3CCCC3)cc2nc1C`, 15.2%.
With `COc1ccc(Cc2nc(-c3ccc(Br)cc3)no2)cc1` the figure was 1.91%; with `Cc1nnc(SCC(=O)Nc2ccc(N(C)C)cc2)n(N)c1=O`, 11.9%.
With `CCN(CC)S(=O)(=O)c1ccc(N2CCOCC2)c(NS(=O)(=O)c2cc(C(C)(C)C)ccc2C)c1` the figure was 6.68%.
Take `COCCN(Cc1ccccc1)C(=O)c1cc(S(=O)(=O)N2CCCCCC2)ccc1OC`: the “hERG current change (%, negative = inhibition) at 1uM” value is recorded as 2.16%.
The value for `CCOC(=O)c1cccc(NC(=O)Cn2cc3c(n2)CCC(C)C3)c1` (stereo not drawn) was 11.2%; that for `Cc1nc2ccccc2nc1SCC(=O)N1CCC(C)CC1` was 7.4%; that for `O=C(O)c1ccc(-c2cccc([N+](=O)[O-])c2)o1` was 11.9%.
With `O=C(NCCO)C(=O)NCC1OCCCN1S(=O)(=O)c1cc(F)ccc1F` (stereo not drawn) the figure was 11.1%.
The value for `O=C(Oc1ccc([N+](=O)[O-])cc1)c1cc(-c2ccccc2)nc2ccccc12` was 13.1%.
On to `Cc1nn(Cc2ccccc2)c(C)c1NC(=O)CSc1nc2c(c(C(F)(F)F)n1)CCc1ccccc1-2`, for which the “hERG current change (%, negative = inhibition) at 1uM” value is 2.11%.
The value for `Cc1ccnc2nc(C(=O)OCCOc3ccc(F)cc3)nn12` was -4.64%.
With `COc1ccc(-n2c(O)c(C=NCCCn3ccnc3)c(=O)[nH]c2=O)cc1` the figure was 11.7%; with `COc1ccc(S(=O)(=O)NCC(c2ccc(C)cc2)N2CCN(C)CC2)cc1` (stereo not drawn), -20.1%.
The value for `CCOC(=O)c1c(-c2ccc(C)o2)csc1NC(=O)CSc1nncs1` was -2.98%; that for `CNC(=O)c1cccc(NC(=O)c2ccccc2OCc2ccccc2)c1` was 5.8%.
Take `CC(=O)Nc1ccc(NC=C(C#N)C#N)cc1`: the “hERG current change (%, negative = inhibition) at 1uM” value came to 4.23%.
With `Cc1ccc(OCCC(=O)OCC(=O)N2CCN(S(=O)(=O)c3ccc(Cl)cc3)CC2)cc1` the figure was 2.59%.
Turning to `CCC(=O)N1c2ccccc2NC2=C(C(=O)CC(C)(C)C2)C1c1cccnc1` (stereo not drawn), the “hERG current change (%, negative = inhibition) at 1uM” value came out at 11.4%.
With `CC(=O)Nc1c(C(=O)C2CC2)oc2ccccc12` the figure was -5.66%.
Turning to `O=C(OCC(=O)N(C1CCCCC1)C1CCCCC1)c1ccc(Cl)nc1`, the “hERG current change (%, negative = inhibition) at 1uM” value turned out to be 11.2%.
With `CCN(CC)C1=CC(=[N+]2CCCC2)CC(C)(C)C1.[I-]` the figure was 3.4%; with `Cc1c(/C=N\NC(=O)c2ccc([N+](=O)[O-])cc2)cnn1C`, 4.79%.
The value for `CCn1c(SCC(=O)N=Nc2c(O)[nH]c3ccccc23)nnc1-c1ccc(C(C)(C)C)cc1` was -0.159%; that for `COc1ccc(N2CCN(CC(=O)Nc3ccc(C)cc3)CC2)cc1` was 8.59%.
The value for `Cc1ccccc1-n1cnnc1SCC(=O)N1CCN(c2ccccc2)CC1` was -22.3%; that for `CCOC(=O)C1=C(C)NC2=C(C(=O)CCC2)C1c1cc(OC)ccc1OC` (stereo not drawn) was -5%; that for `CC(=O)N1c2ccc(S(=O)(=O)N3CCCCC3)cc2CC1C(=O)Nc1ccc(F)cc1C` (stereo not drawn) was 13%.
Turning to `CCn1c(SCC(=O)N/N=C/c2cc(OC)c(O)c(OC)c2)nc2ccccc21`, the “hERG current change (%, negative = inhibition) at 1uM” value is -0.207%.
Take `c1cnc(N2CCN(Cc3ccc4c(c3)OCO4)CC2)cn1`: the “hERG current change (%, negative = inhibition) at 1uM” value was 2.96%.
The value for `OCCCn1c(C2CCCN2c2nc(-c3ccc(Cl)cc3)cs2)nc2cc(Cl)c(N3CCCCC3)cc21` (stereo not drawn) was 5.88%; that for `Cc1ccccc1OCC(=O)NNC(=O)c1cc(S(=O)(=O)N2CCOCC2)ccc1N1CCCC1` was 13.6%; that for `Cc1ccc(S(=O)(=O)NC(C(=O)OCC(=O)NC2CCS(=O)(=O)C2)C(C)C)cc1` (stereo not drawn) was 8.41%.
Regarding `CNC(=O)COc1coc(CN2CCN(c3ccccc3F)CC2)cc1=O`, the “hERG current change (%, negative = inhibition) at 1uM” value was determined as 12.6%.
With `C#CCCOC(=O)N1C2=NC(C(=O)OC)=C(C(=O)OC)[C@@H]3N(CC=C)c4ccccc4[C@]23C[C@H]1C(=O)OC` the figure was 4.02%; with `COc1cc(C2Nc3cc(Cl)c(S(N)(=O)=O)cc3S(=O)(=O)N2)ccc1OCc1ccccc1` (stereo not drawn), 5.51%; with `CCOC(=O)c1ccc(N2CCCCC2)c(NS(=O)(=O)c2ccc(C)cc2)c1`, 14.2%.
With `Nc1c(C2=NCCO2)nnn1Cc1ccccc1` the figure was 18.3%; with `COc1cc(/C=C(/NC(=O)c2ccccc2)C(=O)Nc2cccc(O)c2)c([N+](=O)[O-])cc1OC`, 9.87%.
With `CCCOC(=O)Nc1nc(-c2ccc(C)cc2)c(C)s1` the figure was 14%.
As to `O=C(Nc1cccc(NC(=O)c2cncc(Br)c2)c1)c1cncc(Br)c1`, the “hERG current change (%, negative = inhibition) at 1uM” value was 17.4%.
With `COc1ccc(NC(=O)CS(=O)(=O)Cc2ccccc2)c([N+](=O)[O-])c1` the figure was -16.5%; with `CCCc1ccc2oc(C(=O)N3CCC(COC)C3)c(C)c2c1` (stereo not drawn), 14.4%.
With `CC1CC(C)(C)NC(=S)N1CCC(=O)N1CCN(c2ccccc2)CC1` (stereo not drawn) the figure was 9.01%; with `CCN(CC)CCCN(C(=O)c1ccc(OC)cc1)c1nc(-c2ccc(OC)cc2)cs1`, -15.5%; with `CCN1CCN(c2c(/C=C3\SC(=S)N(Cc4ccco4)C3=O)c(C)c(C#N)c(=O)n2C)CC1`, -6.7%.
With `Cc1ccccc1-c1cc(-c2ccccc2O)n[nH]1` the figure was 11.1%.
For the compound `Cc1ccc(OCC(=O)Nc2ccccc2C(=O)N2CCCCC2)cc1`, the “hERG current change (%, negative = inhibition) at 1uM” value stood at 4.35%.
The value for `CC(=O)c1cccc(NC(=O)C2CCCN(S(C)(=O)=O)C2)c1` (stereo not drawn) was 10.4%; that for `Cc1cccc(N2C(=O)C3C4C=CC(C5CC45)C3C2=O)n1` (stereo not drawn) was 15%.
With `C/C(=N\OCc1ccccc1)c1c(O)cc(C(C)C)n(-c2ccccc2)c1=O` the figure was 3.4%.
In the case of `COCCNC(=O)COc1cccc2c1OC(C)(C)C2`, the “hERG current change (%, negative = inhibition) at 1uM” value is reported as 4.7%.
